The results in this text go back to article PMC9911399, “Two distinct binding modes provide the RNA-binding protein RbFox with extraordinary sequence specificity”.

Numbering of substitutions follows the chain as printed; changes in the protein carry UniProt numbers. The list shows a part of the results.

Test [1] deals with T1, RBFOX1 RRM RbFoxmut (Fox-RRM*) (Homo sapiens, UniProt Q9NWB1 109-208, R118D;E147R;N151S;E152T).
T1 sequence: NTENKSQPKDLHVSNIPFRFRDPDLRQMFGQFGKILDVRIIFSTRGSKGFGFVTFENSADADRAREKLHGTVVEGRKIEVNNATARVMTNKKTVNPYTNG
The test is described as follows: EMSA; HiTS-Eq, 1 nM pool, 10 min; buffer printed only for the single-RNA assays: 10 mM Tris pH 7.5, 150 mM NaCl, 3.4 mM EDTA, 0.001% NP-40, 30 C. Conditions: tags: His6 N-terminal (pET28a); label: 5' 32P. In short, it runs like this:
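Purified wild-type or mutant RbFox RRM at increasing concentrations was equilibrated with 1 nM of 5′-radiolabelled RNA carrying 7 randomized nucleotides for 10 min in 50 µL. Unbound RNA was separated by 8% native PAGE and sequenced. Relative association constants came from read-count changes of each RNA species compared with the control reaction, normalised to the cognate motif.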

Test [2] addresses T1, RBFOX1 RRM RbFoxmut (Fox-RRM*). The test is described as follows: competition; 10 mM Tris pH 7.5, 150 mM NaCl, 3.4 mM EDTA, 0.001% NP-40, 30 C. Conditions: tags: His6 N-terminal (pET28a).

B1: CAGUUCA (DNA:RNA)
RNA: GGGAGACCGGAAUUCAGAUUGUCCCAGUUCAUUAAAUCCCGUCGUAGCCACCA
DNA 1: CAATCTGAATTCCGGTCTCCC
DNA 2: TGGTGGCTACGACGGGATT
B1: the binding signal in test [1] is 0.106 KA relative to UGCAUGU.

B2: UACGUAG (DNA:RNA)
RNA: B1 RNA with C25U, G27C, U28G, C30A, A31G
DNA 1: CAATCTGAATTCCGGTCTCCC
DNA 2: TGGTGGCTACGACGGGATT
As for B2, the binding signal in test [1] was 0.11 KA relative to UGCAUGU.

B3: CACGUUG (DNA:RNA)
RNA: B1 RNA with G27C, U28G, C30U, A31G
DNA 1: CAATCTGAATTCCGGTCTCCC
DNA 2: TGGTGGCTACGACGGGATT
For the molecule B3, in test [1], the binding signal is 0.121 KA relative to UGCAUGU. As for GCAUGGG (ssRNA), the binding signal in test [2] stood at 355 nM.

B4: CUCGUUA (DNA:RNA)
RNA: B1 RNA with A26U, G27C, U28G, C30U
DNA 1: CAATCTGAATTCCGGTCTCCC
DNA 2: TGGTGGCTACGACGGGATT
In the case of B4, in test [1], the binding signal is 0.13 KA relative to UGCAUGU.

B5: CUGUUCC (DNA:RNA)
RNA: B1 RNA with A26U, A31C
DNA 1: CAATCTGAATTCCGGTCTCCC
DNA 2: TGGTGGCTACGACGGGATT
As for B5, the binding signal in test [1] was 0.12 KA relative to UGCAUGU.

B6: ACGUGCG (DNA:RNA)
RNA: B1 RNA with C25A, A26C, U29G, A31G
DNA 1: CAATCTGAATTCCGGTCTCCC
DNA 2: TGGTGGCTACGACGGGATT
With B6, the binding signal in test [1] was 0.182 KA relative to UGCAUGU.

B7: CAAUGCU (DNA:RNA)
RNA: B1 RNA with G27A, U29G, A31U
DNA 1: CAATCTGAATTCCGGTCTCCC
DNA 2: TGGTGGCTACGACGGGATT
On to B7, for which, in test [1], the binding signal was 0.0987 KA relative to UGCAUGU.

B8: GCGACUA (DNA:RNA)
RNA: B1 RNA with C25G, A26C, U28A, U29C, C30U
DNA 1: CAATCTGAATTCCGGTCTCCC
DNA 2: TGGTGGCTACGACGGGATT
As to B8, the binding signal in test [1] is 0.0829 KA relative to UGCAUGU.

B9: CAAAGAG (DNA:RNA)
RNA: B1 RNA with G27A, U28A, U29G, C30A, A31G
DNA 1: CAATCTGAATTCCGGTCTCCC
DNA 2: TGGTGGCTACGACGGGATT
Regarding B9, the binding signal in test [1] is 0.106 KA relative to UGCAUGU.

B10: CACCUAG (DNA:RNA)
RNA: B1 RNA with G27C, U28C, C30A, A31G
DNA 1: CAATCTGAATTCCGGTCTCCC
DNA 2: TGGTGGCTACGACGGGATT
For the molecule B10, the binding signal in test [1] was 0.115 KA relative to UGCAUGU.

B11: CAGCCCG (DNA:RNA)
RNA: B1 RNA with U28C, U29C, A31G
DNA 1: CAATCTGAATTCCGGTCTCCC
DNA 2: TGGTGGCTACGACGGGATT
Take B11: the binding signal in test [1] was 0.0748 KA relative to UGCAUGU.

B12: GAGAGGC (DNA:RNA)
RNA: B1 RNA with C25G, U28A, U29G, C30G, A31C
DNA 1: CAATCTGAATTCCGGTCTCCC
DNA 2: TGGTGGCTACGACGGGATT
For the molecule B12, the binding signal in test [1] was 0.0763 KA relative to UGCAUGU.

B13: CUGGGUC (DNA:RNA)
RNA: B1 RNA with A26U, U28G, U29G, C30U, A31C
DNA 1: CAATCTGAATTCCGGTCTCCC
DNA 2: TGGTGGCTACGACGGGATT
On to B13, for which the binding signal in test [1] was 0.179 KA relative to UGCAUGU.

B14: CUAUUUA (DNA:RNA)
RNA: B1 RNA with A26U, G27A, C30U
DNA 1: CAATCTGAATTCCGGTCTCCC
DNA 2: TGGTGGCTACGACGGGATT
Turning to B14, in test [1], the binding signal is 0.109 KA relative to UGCAUGU.

B15: GCCGGCU (DNA:RNA)
RNA: B1 RNA with C25G, A26C, G27C, U28G, U29G, A31U
DNA 1: CAATCTGAATTCCGGTCTCCC
DNA 2: TGGTGGCTACGACGGGATT
Regarding B15, the binding signal in test [1] was 0.0905 KA relative to UGCAUGU.

B16: CCGGGCC (DNA:RNA)
RNA: B1 RNA with A26C, U28G, U29G, A31C
DNA 1: CAATCTGAATTCCGGTCTCCC
DNA 2: TGGTGGCTACGACGGGATT
As for B16, the binding signal in test [1] was 0.194 KA relative to UGCAUGU.

B17: AUGUGCG (DNA:RNA)
RNA: B1 RNA with C25A, A26U, U29G, A31G
DNA 1: CAATCTGAATTCCGGTCTCCC
DNA 2: TGGTGGCTACGACGGGATT
Take B17: the binding signal in test [1] is 0.231 KA relative to UGCAUGU.

B18: UAGGCUG (DNA:RNA)
RNA: B1 RNA with C25U, U28G, U29C, C30U, A31G
DNA 1: CAATCTGAATTCCGGTCTCCC
DNA 2: TGGTGGCTACGACGGGATT
For B18, the binding signal in test [1] is 0.128 KA relative to UGCAUGU.

B19: UGGCAUG (DNA:RNA)
RNA: B1 RNA with C25U, A26G, U28C, U29A, C30U, A31G
DNA 1: CAATCTGAATTCCGGTCTCCC
DNA 2: TGGTGGCTACGACGGGATT
For the molecule B19, the binding signal in test [1] was 1.17 KA relative to UGCAUGU.

B20: AAUUCAA (DNA:RNA)
RNA: B1 RNA with C25A, G27U, U29C, C30A
DNA 1: CAATCTGAATTCCGGTCTCCC
DNA 2: TGGTGGCTACGACGGGATT
Take B20: the binding signal in test [1] was 0.0801 KA relative to UGCAUGU.

B21: GUAUUAU (DNA:RNA)
RNA: B1 RNA with C25G, A26U, G27A, C30A, A31U
DNA 1: CAATCTGAATTCCGGTCTCCC
DNA 2: TGGTGGCTACGACGGGATT
For the molecule B21, the binding signal in test [1] was 0.157 KA relative to UGCAUGU.

B22: AGGUACA (DNA:RNA)
RNA: B1 RNA with C25A, A26G, U29A
DNA 1: CAATCTGAATTCCGGTCTCCC
DNA 2: TGGTGGCTACGACGGGATT
As for B22, the binding signal in test [1] was 0.102 KA relative to UGCAUGU.

B23: ACUACAG (DNA:RNA)
RNA: GGGAGACCGGAAUUCAGAUUGUCCACUACAGUUAAAUCCCGUCGUAGCCACCA
DNA 1: CAATCTGAATTCCGGTCTCCC
DNA 2: TGGTGGCTACGACGGGATT
In the case of B23, the binding signal in test [1] is 0.0827 KA relative to UGCAUGU.

B24: UGGAGGU (DNA:RNA)
RNA: B23 RNA with A25U, C26G, U27G, C29G, A30G, G31U
DNA 1: CAATCTGAATTCCGGTCTCCC
DNA 2: TGGTGGCTACGACGGGATT
On to B24, for which, in test [1], the binding signal was 0.105 KA relative to UGCAUGU.

B25: CGCUAUU (DNA:RNA)
RNA: B1 RNA with A26G, G27C, U29A, C30U, A31U
DNA 1: CAATCTGAATTCCGGTCTCCC
DNA 2: TGGTGGCTACGACGGGATT
Take B25: the binding signal in test [1] was 0.0918 KA relative to UGCAUGU.

B26: GAAAAGG (DNA:RNA)
RNA: B23 RNA with A25G, C26A, U27A, C29A, A30G
DNA 1: CAATCTGAATTCCGGTCTCCC
DNA 2: TGGTGGCTACGACGGGATT
As to B26, the binding signal in test [1] is 0.035 KA relative to UGCAUGU.

B27: GCAAUCG (DNA:RNA)
RNA: B23 RNA with A25G, U27A, C29U, A30C
DNA 1: CAATCTGAATTCCGGTCTCCC
DNA 2: TGGTGGCTACGACGGGATT
Take B27: in test [1], the binding signal was 0.0721 KA relative to UGCAUGU.

B28: CAUUUAC (DNA:RNA)
RNA: B1 RNA with G27U, C30A, A31C
DNA 1: CAATCTGAATTCCGGTCTCCC
DNA 2: TGGTGGCTACGACGGGATT
As to B28, the binding signal in test [1] is 0.119 KA relative to UGCAUGU.

B29: GGCUUUU (DNA:RNA)
RNA: B1 RNA with C25G, A26G, G27C, C30U, A31U
DNA 1: CAATCTGAATTCCGGTCTCCC
DNA 2: TGGTGGCTACGACGGGATT
As for B29, the binding signal in test [1] is 0.0624 KA relative to UGCAUGU.

B30: UGUCCAG (DNA:RNA)
RNA: B23 RNA with A25U, C26G, A28C
DNA 1: CAATCTGAATTCCGGTCTCCC
DNA 2: TGGTGGCTACGACGGGATT
As for B30, the binding signal in test [1] is 0.144 KA relative to UGCAUGU.
